Reference: patent publication US20230183319A1 (ACCELERON PHARMA, published 2023)

T1: activin A (UniProt P08476 311-426)
T1 sequence (looked up): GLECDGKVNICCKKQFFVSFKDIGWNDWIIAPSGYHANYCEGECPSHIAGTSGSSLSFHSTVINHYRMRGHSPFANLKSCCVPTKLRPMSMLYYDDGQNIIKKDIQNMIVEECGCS

T2: GDF11 (UniProt O95390 299-407)
T2 sequence (looked up): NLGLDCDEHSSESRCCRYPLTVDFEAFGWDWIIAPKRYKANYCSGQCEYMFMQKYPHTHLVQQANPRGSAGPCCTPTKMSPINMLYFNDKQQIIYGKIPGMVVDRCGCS

T3: BMP9 (UniProt Q9UK05 320-429)
T3 sequence (looked up): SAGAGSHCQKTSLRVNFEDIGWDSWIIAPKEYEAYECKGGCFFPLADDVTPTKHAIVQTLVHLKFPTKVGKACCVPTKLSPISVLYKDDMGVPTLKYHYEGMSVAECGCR

T4: BMP10 (UniProt O95393 317-424)
T4 sequence (looked up): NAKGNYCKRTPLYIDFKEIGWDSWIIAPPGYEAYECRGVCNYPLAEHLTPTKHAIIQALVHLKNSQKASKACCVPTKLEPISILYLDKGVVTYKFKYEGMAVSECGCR

T5: activin B (UniProt P09529 293-407)
T5 sequence (looked up): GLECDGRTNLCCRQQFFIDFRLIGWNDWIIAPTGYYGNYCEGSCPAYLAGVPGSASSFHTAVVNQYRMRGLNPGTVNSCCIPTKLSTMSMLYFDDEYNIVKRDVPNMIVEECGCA

T6: GDF8 (UniProt O14793 267-375)
T6 sequence (looked up): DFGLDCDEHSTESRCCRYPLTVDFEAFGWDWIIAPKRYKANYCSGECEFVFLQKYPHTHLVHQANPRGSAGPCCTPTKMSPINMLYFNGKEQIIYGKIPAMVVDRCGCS


Assays:
Assay in all cases: cell-based or functional assay
activin A [1] = target: T1, activin A
GDF11 [2] = target: T2, GDF11
BMP9 = target: T3, BMP9
activin A [3] = target: T1, activin A; remark: listed apart in the source
BMP10 = target: T4, BMP10
GDF11 [4] = target: T2, GDF11; remark: listed apart in the source
activin B = target: T5, activin B
GDF8 = target: T6, GDF8

| IC50 (ng/mL); A204 CAGA12 luciferase reporter (activin A [1]) | IC50 (ng/mL); A204 CAGA12 luciferase reporter (GDF11 [2]) | IC50 (ng/mL); A204 CAGA12 luciferase reporter (BMP9) | IC50 (nM); A204 CAGA12 luciferase reporter (activin A [3]) | IC50 (nM); A204 CAGA12 luciferase reporter (BMP10) | IC50 (nM); A204 CAGA12 luciferase reporter (GDF11 [4]) | IC50 (nM); A204 CAGA12 luciferase reporter (activin B) | IC50 (nM); A204 CAGA12 luciferase reporter (GDF8) | Binder |
| --- | --- | --- | --- | --- | --- | --- | --- | --- |
| 11 ng/mL | 9 ng/mL | 277 ng/mL | – | – | – | – | – | ActRIIB(F82I)-G1Fc (Fc fusion) GRGEAETRECIYYNANWELERTNQSGLERCEGEQDKRLHCYASWRNSSGTIELVKKGCWLDDINCYDRQECVATEENPQVYFCCCEGNFCNERFTHLPEAGGPEVTYEPPPTAPTG[human IgG1 Fc and a few adjoining residues not shown] |
| 10 ng/mL | 15 ng/mL | ~5000 ng/mL | – | – | – | – | – | ActRIIB(F82K)-G1Fc (Fc fusion) GRGEAETRECIYYNANWELERTNQSGLERCEGEQDKRLHCYASWRNSSGTIELVKKGCWLDDKNCYDRQECVATEENPQVYFCCCEGNFCNERFTHLPEAGGPEVTYEPPPTAPTG[human IgG1 Fc and a few adjoining residues not shown] |
| 15 ng/mL | 11 ng/mL | 122 ng/mL | – | – | – | – | – | ActRIIB(K55A)-G1Fc (Fc fusion) GRGEAETRECIYYNANWELERTNQSGLERCEGEQDARLHCYASWRNSSGTIELVKKGCWLDDFNCYDRQECVATEENPQVYFCCCEGNFCNERFTHLPEAGGPEVTYEPPPTAPTG[human IgG1 Fc and a few adjoining residues not shown] |
| – | – | – | 1.67 nM | 13.2 nM | 9.95 nM | 0.08 nM | – | ActRIIB(F82I-N83R)-G1Fc (Fc fusion) GRGEAETRECIYYNANWELERTNQSGLERCEGEQDKRLHCYASWRNSSGTIELVKKGCWLDDIRCYDRQECVATEENPQVYFCCCEGNFCNERFTHLPEAGGPEVTYEPPPTAPTG[human IgG1 Fc and a few adjoining residues not shown] |
| – | – | – | > 10 nM | > 100 nM | 0.24 nM | 0.07 nM | 5.76 nM | ActRIIB(L79H)-G1Fc (Fc fusion) GRGEAETRECIYYNANWELERTNQSGLERCEGEQDKRLHCYASWRNSSGTIELVKKGCWHDDFNCYDRQECVATEENPQVYFCCCEGNFCNERFTHLPEAGGPEVTYEPPPTAPTG[human IgG1 Fc and a few adjoining residues not shown] |
| – | – | – | 1.32 nM | 0.53 nM | – | 0.09 nM | – | ActRIIB(F82K-N83R)-G1Fc (Fc fusion) GRGEAETRECIYYNANWELERTNQSGLERCEGEQDKRLHCYASWRNSSGTIELVKKGCWLDDKRCYDRQECVATEENPQVYFCCCEGNFCNERFTHLPEAGGPEVTYEPPPTAPTG[human IgG1 Fc and a few adjoining residues not shown] |
| – | – | – | 1.52 nM | 12.6 nM | 17.9 nM | 0.11 nM | – | ActRIIB(F82T-N83R)-G1Fc (Fc fusion) GRGEAETRECIYYNANWELERTNQSGLERCEGEQDKRLHCYASWRNSSGTIELVKKGCWLDDTRCYDRQECVATEENPQVYFCCCEGNFCNERFTHLPEAGGPEVTYEPPPTAPTG[human IgG1 Fc and a few adjoining residues not shown] |
| 19 ng/mL | 14 ng/mL | 290 ng/mL | – | – | – | – | – | ActRIIB(K55E)-G1Fc (Fc fusion) GRGEAETRECIYYNANWELERTNQSGLERCEGEQDERLHCYASWRNSSGTIELVKKGCWLDDFNCYDRQECVATEENPQVYFCCCEGNFCNERFTHLPEAGGPEVTYEPPPTAPTG[human IgG1 Fc and a few adjoining residues not shown] |
| – | – | – | > 100 nM | > 100 nM | 0.36 nM | 0.15 nM | > 10 nM | ActRIIB(L79H-F82I)-G1Fc (Fc fusion) GRGEAETRECIYYNANWELERTNQSGLERCEGEQDKRLHCYASWRNSSGTIELVKKGCWHDDINCYDRQECVATEENPQVYFCCCEGNFCNERFTHLPEAGGPEVTYEPPPTAPTG[human IgG1 Fc and a few adjoining residues not shown] |
| – | – | – | – | > 100 nM | > 100 nM | 0.1 nM | – | ActRIIB(L79H-F82K)-G1Fc (Fc fusion) GRGEAETRECIYYNANWELERTNQSGLERCEGEQDKRLHCYASWRNSSGTIELVKKGCWHDDKNCYDRQECVATEENPQVYFCCCEGNFCNERFTHLPEAGGPEVTYEPPPTAPTG[human IgG1 Fc and a few adjoining residues not shown] |
